# Source: the RNAGym collection of RNA variant scans (doi:10.1073/pnas.2313332121)
# Variants at the floor of the assay are shown more often than the library holds them.
# B1: TPR 5TU (parent)
# chain: GGAUCUUCUCGAUCUAACAAAAAAGACAAAUCUGCCACAAAGCUUGAGAGCAUCUUCGGAUGCAGAGGCGGCAGCCUUCGGUGGCGCGAUAGCGCCAACGUUCUCAACUAUGACACGCAAAACGCGUGCUCCGUUGAAUGGAGUUUAUCAUG
# Variants of: B1
# Assay: polymerase ribozyme fitness, log enrichment relative to wild type (log ratio); higher = more active; in vitro selection for triplet polymerase activity
# How it was run: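 Each subunit of a heterodimeric triplet polymerase ribozyme was represented by a PCR-built, transcribed mutant library that underwent triplicate single-round in vitro selection with frozen incubation at −7 °C. Extended constructs were recovered by gel excision, streptavidin-bead capture and RT-PCR, and Illumina sequencing of input and output libraries kept genotypes with ≥10 input reads and ≥1 read per output. Fitness is the logarithm of genotype enrichment relative to wild-type enrichment, from inverse-variance-weighted replicate averages, with a logarithm base of 2.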
row,Variant,polymerase ribozyme fitness (log ratio)
1,GGAUCUUCUCGAUCUAACAAAAAAGACAAAUCUGCCACAAAGCUUGCGAGCAUCUUCGGUUGCAGAGGCGGCAGCCUUCGGUGGCACGAUAGCGCCAACGUUCUCAACUUUGACACGCAAAACGCGUGCUCCGUUGAAUGGAGUUUAUCAUG,≤ -4.2
2,GGAUCUUCUCGAUCUAACAAAAAAGACAAAUCUGCCACAAAGCUUUAGAGCAUCUUCGGAUGCAGAGGCGGCAGCCUUCGGUGCCGGGAUAGCGCCAACGUUCUCAACUAUGACACGCAAAACGCGUGCUCCGUUGAAUGGAGUUUAUCGUG,≤ -4.2
3,GGAUCUUCUCGAUCUAACAAAAAAGACAAAUCUGCCACAAAGCUUUAGAGCAUCUUCGGAUGCAGAGGCGGCAGCCUUCGGUGGCGCGACAGCGCCAACGUUCUCAACUUUGACACGCAAAGCGCAUGCUCCGUUGAAUGGAGUUUAUCAUG,≤ -4.2
4,GGAUCUUCUCGAUCUAACAAAAAAGACAAAUCUGCCACAAAGCUUGCGAGCAUCUUCGGAUGCAGAGGCGGCAGCCUUCGGUGGCGCGAUGGCGCUAACGUUCUCAACUAUGACACGCAAAACGCGUGCUCCGUUGAAUGAAGUUUAUCAUG,≤ -4.2
5,GGAUCUUCUCGAUCUAACAAAAAAGACAAAUCUGCCACAAAGCUUGCGAGCCUCUUCGGAUGCAGAGGCGGUAGCCUUCGGUGGUGCGAGCGCGCCAACGUUCGCAACUAUGACACGCAAAACGCGUGCUCCGUUGAAUGGAGUUUAUCAUG,≤ -4.2
6,GGAUCUUCUCGAUCUAACAAAAAAGACAAAUCUGCCACAAAGCUUUAGAGCAUCUUCGGAUGCAGAGGCGGCAGCCUUCGGCGGCGCGAUAGCGCCAAUGCUCUCAACUAUGACACGCAAAACGCGUGCUCCGUUGAAUGGAGUUUAUCAUG,≤ -4.2
7,GGAUCUUCUCGAUCUAACAAAAAAGACAAAUCUGCCACAAAGCUUGCGAGCAUCUUCGGAUGCGGAGGCGGCAGCCUUCGGCGGCGCGAUGGCGCCAAUGUUCUCAACUAUGACACGCAAAACGCGUGCUCCGUGGAAUGGAGUUUAUCAUG,≤ -4.2
8,GGAUCUUCUCGAUCUAACAAAAAAGACAAAUCUGCCACAAAGCUUGCGAGCAUCUUCGGAUGCAGAGGCGGCGGCCUUCGGUGGCGCUAUAGCGCCAACGUUCUGGACUAUGACACGCAAAACGCGUGCUCCAUUGAAUGGAGUUUAGCAUG,≤ -4.2
9,GGAUCUUCUCGAUCUAACAAAAAAGACAAAUCUGCCACAAAGCUUUAGAGCAUCUUCGGAUGCAGAGCCGGCAGCCUUCGGUGGCGCGAUAGCCCCAACGUUCUCAACUAUGACACGCAAAACGCGUGCUCCGUUGAAUGGAGUUUAUCAUG,≤ -4.2
10,GGAUCUUCUCGAUCUAACAAAAAAGACAAAUCUGCCACAAAGCUUUAGAGCAUCUUCGGAAGCAGAGGCGGCAGCCUUCGGUGGCGCGAUAUCGCAAACGUUCUCAACUAUGACACGCAAAACGCGUGCUCCGUUGGAUGGAGUUUAUCAUG,≤ -4.2
11,GGAUCUUCUCGAUCUAACAAAAAAGACAAAUCUGCCACAAAGCUUGCGAGCAUCUUCGGUUGCAGAGGCGGCAGCCUUCUGUGGCGCGAUAGUGCCAACGUUCUCAACUAUGACACGCAAAACGCGUGCUCCGUUGAAUGGAGUUUAUCAUG,≤ -4.2
12,GGAUCUUCUCGAUCUAACAAAAAAGACAAAUCUGCCACAAAGCUUGCGAGCAUCUUCGGAUGCAGUGGCGGCAGCCUUCGGUGGCGCGAUAGGGCCAACGUUCUCAACUAUGACACGCAAAACGCGUGCUCCGUUGAAUGGAGUUUAUCAUG,≤ -4.2
13,GGAUCUUCUCGAUCUAACAAAAAAGACAAAUCUGCCACAAAGCUUUAGAGCAUCUUCGGAUGCAGAGGCGGCAGCCUUCGGUGGCGCUAUAGCGCCAACGUUCUCAACUAUGACACGCAAAACGCGUGCUCCGUUGAAUGGAGUUUAUCAUG,≤ -4.2
14,GGAUCUUCUCGAUCUAACAAAAAAGACAAAUCUGCCACAAAGCUUUAGAGCAUCUUCGGAUGCAGAGGCGGCAGCCGUCGGUGGCGCGAUAGGGCCAACGUUCUCGACUAUGACACGCAAAACGCGUGCACCGUUGAAUGGAGUUGAUCAUG,≤ -4.2
15,GGAUCUUCUCGAUCUAACAAAAAAGACAAAUCUGCCACAAAGCUUUAGAGCAUCUUCCGAUGCAGAGGCGGCAGCCUUCGGUGGCGCGAUUGCGCUAACGUUCUCAACUAUGACACGCAAAACGCGUGCUCCGUUGAAUGGAGUUUAUCAUG,≤ -4.2
16,GGAUCUUCUCGAUCUAACAAAAAAGACAAAUCUGCCACAAAGCUUUAGAGCAUCUUCGGAUACAGAGGCGGCAGCAUUCGGUGGCGUAAUAGCGCCAACGUUCUCAACUAUGACACGUAAAACGCGUGCUCCGAUGAAUGGAGUUUAUCAUG,≤ -4.2
17,GGAUCUUCUCGAUCUAACAAAAAAGACAAAUCUGCCACAAAGCUUGCGAGCAUCUUCGGGUGCAGAGGCGGCAGCCUUCGGUGGCGCGAUAGAGAUAACGUUCUCAACUAUGACACGCAAAACGCGUGCUCCGUUGAAGGGAGUUUAUCAUG,≤ -4.2
18,GGAUCUUCUCGAUCUAACAAAAAAGACAAAUCUGCCACAAAGCUUGCGAGCAUCUUCGGAUGCUGAGGCGGCAGCCUUUGGUUGCGCGAUAGCGCCAACGUUCUCAACUAUGACACGCAAACCGCGUGCUCCGUUGAAUGGAGUUUAUCAUG,≤ -4.2
19,GGAUCUUCUCGAUCUAACAAAAAAGACAAAUCUGCCACAAAGCUUGCGAGCAUCUUCGGAUGCGGAGGCGGCAGCCUUCGGUGGCGCGAUUGCGCCAACGUUCUCAACUAUGACACGCUAAACGCGUGCUCCGUUGAAUGGAGUUUAUCAUG,≤ -4.2

row,Variant,polymerase ribozyme fitness (log ratio)
1,GGAUCUUCUCGAUCUAACAAAAAAGACAAAUCUGCCACAAAGCUUUAGAGCAUCUGCGGAUGCAGCGGCGGCAGCCUUCGGUUGCGCGAUAGCGCCAAGGUUCUCGACUAUGACACGCAAAACGCGUGCUCCGUUGAAUGGAGUUUAUCAUG,≤ -4.2
2,GGAUCUUCUCGAUCUAACAAAAAAGACAAAUCUGCCACAAAGCUUGCGAGCAUCUUCGGUUGCAGAGGCGGCAGCCUUCGGUGUCGCGAUAGUGCCAUCGUUCUCAAUUAUGACACGCAAAACGCGUGCUACGUUGAAUGGAGUUUAUCAUG,≤ -4.2
3,GGAUCUUCUCGAUCUAACAAAAAAGACAAAUCUGCCACAAAGCUUUAGAGCAUCUUCUGAUGCAGAGGCGGCAGCCUUCGGUGGCGCGUUAGCGCCAACGUGCUCAACUAUGACACGGAAAACGCGUGAUCCGUUGAAUGGAGUUUAUCAUU,≤ -4.2
4,GGAUCUUCUCGAUCUAACAAAAAAGACAAAUCUGCCACAAAGCUUUAGAGCAUCUUCGGAUGCAGAGGCGCCAGCCUUCGGUGGCGCGAUAGCGUCUACGUUCUCAACUAUGACCCGCAAAACGCGUGCUCCGUUUAAUGGAGUUUAUCAUG,≤ -4.2
5,GGAUCUUCUCGAUCUAACAAAAAAGACAAAUCUGCCACAAAGCUUUAGAGCAUCUUCGGAUGCAGAGGCGGCAGCCUUCGGCGGCGCGAUAGCGUCAACGUUCUCAACUAUGACACGCAAAACGCGUGCUCCGUUGAAUGGAGUUUAUCAUG,-0.628
6,GGAUCUUCUCGAUCUAACAAAAAAGACAAAUCUGCCACAAAGCUUGCGCGUAUCUUCGGAUGCAGAGGCGGCAGCCUUCGGUCGCGUUAUAGCGCCAACGUUCUCAACUAUGACACGCAAAACGCGUGCUCCGUUGAAUGGAGUUUAACAUU,≤ -4.2
7,GGAUCUUCUCGAUCUAACAAAAAAGACAAAUCUGCCACAAAGCUUUAGAGCAUCUUCGGAUGCAGAGGCGGCAGCCUUCGGUGGCGCGAUAGCGCCAAUGUUCUCAACUAUGACACGCAAAACGCGUGCUCCGUUGAAUGGAGUUUAUCAUG,-1.06
8,GGAUCUUCUCGAUCUAACAAAAAAGACAAAUCUGCCACAAAGCUUUACAGCAUCUUCGGAUGCAGAGGCGGCAGCCUUGGGUGGCGCGAUAGGGCCAACGUUCUCAACUAUGACACGCAAAACGCGUGCUCCGUUGAAUGGAGAUUAUCAUG,≤ -4.2
9,GGAUCUUCUCGAUCUAACAAAAAAGACAAAUCUGCCACAAAGCUUGCGAGCAUCUUCGGAUGCAGAGGCGGCUGCCUUCGGUGGCGCGAUAGCGCCAACGUUCUCAACUAUGACACGCAAAACCCGUGCUCCGUUGAAUGGAGUUUAUCAUG,-3.78
10,GGAUCUUCUCGAUCUAACAAAAAAGACAAAUCUGCCACAAAGCUUGCGGGCAUCUUCGGAUGCAGAGGCGGCAGCCUACGGUGGCGCGAUAGCGCCAUCGUUCUCAACUAUGACACGCAUAACGCGUGCUGCGUUGAAUGGAGGUUAUCAUG,≤ -4.2
11,GGAUCUUCUCGAUCUAACAAAAAAGACAAAUCUGCCACAAAGCUUUAGAGCAUCUUCGGAUGCAGAGGCGGCAGCCUUCGGUGACGCGAUAGCGCCAACGUUUUCAACUAUGACACGCAAAACGCGUGCUCCGUUGAAUGGAGUUUAUCAUG,≤ -4.2
12,GGAUCUUCUCGAUCUAACAAAAAAGACAAAUCUGCCACAAAGCUUGCGAGCAUCUUCGGGUGCAGAGGCGGCAGCCUUCGGUCGCGCGAUAGCGCCAACGUUCUCAACUAUGACACGCAAAACGCGUGCUCCGUUGAAUUGAGUUUAUCAUG,≤ -4.2
13,GGAUCUUCUCGAUCUAACAAAAAAGACAAAUCUGCCACAAAGCUUUAGAGCAUCUUCCGAUGCAGAGGAGGCAGCCUUCGGUGGCGCGAUAGCGCCAACGUUCUCAACUAUGACACGCAAAACGCGUGCUCCGUUGAAUGGAGUUUAUCAUG,≤ -4.2
14,GGAUCUUCUCGAUCUAACAAAAAAGACAAAUCUGCCACAAAGCUUUAGAGCAUCUUCGGAUGCAGAGGCGGCAGCCGUCGGUGGCGCGAUAGGGCCAACGUUCACAACUAUGACACGCAAAACGCGUGCUCCGUUGAAUGGAGUUUAUCAUG,≤ -4.2
15,GGAUCUUCUCGAUCUAACAAAAAAGACAAAUCUGCCACAAAGCUUUAGAGCAUCUUCGGAUGCAGAGGCGGCAGCCUUCGGUUGCGCGAUAGCGCCAACGUUCUCAACUAUGACACGCUAAAAGCGUGCUCCGUUGAAUGGAGUCUAUCAUG,-3.34
16,GGAUCUUCUCGAUCUAACAAAAAAGACAAAUCUGCCACAAAGCUUGCGAGCUUCUUCGGAUGCAGAGGCGGCAGCCUUCGGUGGGGCGAUAUCGCCAACGUUCUCAACUAUGACACGCAAAACGCGUGCUCCGUUGAAUGGAGUUUAUCAUG,≤ -4.2
17,GGAUCUUCUCGAUCUAACAAAAAAGACAAAUCUGCCACAAAGCUUGCGAGCAUCUUCGGAUGCAGAGGCGGCGGCCUUCGGUGGCGCGAUAGUGCCAACGUUCUCAACUAUGACACGCAAAACACGUUCUCCGUUGAACGGAGUUUCUCAUG,≤ -4.2
18,GGAUCUUCUCGAUCUAACAAAAAAGACAAAUCUGCCACAAAGCUUGCGGGCAUCUUCGGAUGCAGAGGCGGCAGCCUUCCGUGGCGCGAUAUCGCCAACGUUCUCAACUAUGACACGCAAAACGCGUGCUCCGUUGAAUGGAGUUUAUCAUG,≤ -4.2
19,GGAUCUUCUCGAUCUAACAAAAAAGACAAAUCUGCCACAAAGCUUUAGAGCAUCUUCGGAUGCAGAGGCGGCAGCCGUCGGUGGCGUGUUAGAGCCAACGUUCUCAACUAUGACACGCAAAACUCGUGCUCCGUUGAAUGGAGUUUAUCAUG,≤ -4.2
